From PubChem BioAssay AID686978 (National Center for Advancing Translational Sciences (NCATS), 2013)
Where “and” joins values, the source holds several entries; their conditions need not be identical. Identical values can stand only once. Hit rate of the full screen: of about 420,000 compounds, about 64,000 (15%) were called active. The inconclusive results got no clear call from the source; some entries with a clear call stand among them for comparison. Calls come from the whole dose curve; as a rule, active = well fitted inhibition curve with a large enough effect; inconclusive = small, poorly fitted or top-dose-only effect; inactive = flat fitted curve, though single readings scatter. Potencies of inconclusive entries are doubtful fits and often do not repeat.

assay: qHTS for Inhibitors of human tyrosyl-DNA phosphodiesterase 1 (TDP1): qHTS in cells in absence of CPT; conditions: DT40 Tdp1-/- hTDP1 cells, no CPT, ATP luminescence, 48 h; activity change, negative = growth inhibition: at 46.2 µM (top of the series) unless noted; note: nearly all actives have a fitted effect of over 55% in size
Method in brief: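 Luminescent ATP content (CellTiter-Glo) served as the growth readout. Knockout chicken DT40 cells expressing human TDP1 were exposed to compounds without camptothecin for a minimum 48 hr at 37 °C.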
% is set by controls: 0 for no effect and ±100 for the full control effect; potency is the fitted concentration of half-maximal effect; tags give direction and shape of the fitted curve.

Row | Compound | activity change, negative = growth inhibition | Potency
1 | Cc1ccc(C)c(NC(=O)CCS(=O)(=O)c2cccc3nsnc23)c1 | inactive: -8.13% | 
2 | CCc1cccc(CC)c1N(COC)C(=O)Cn1c(CC)nc2ccccc21 |  | inconclusive: 16.4 µM [inhibitor, single point]
3 | CC(CC(O)C1OC1(C)C)C1CCC2(C)C3=CCC4C(C)(C)C(=O)CCC4(C)C3CC[C@@]12C (some centres undefined) |  | active: 7.31 µM
4 | Cc1ccc(S(=O)(=O)NC2CC(C)(C)NC(C)(C)C2)cc1 | inactive: -6.94% | 
5 | O=C(CCN1C(=O)c2ccncc2C1=O)Nc1cc(F)ccc1F | inactive: 2.57% | 
6 | COc1ccc(OC)c(NC(=O)CSc2nc3c(c(=O)n(C)c(=O)n3C)n2C)c1 | inactive: -7.07% | 
7 | Nn1c(SCC(=O)Nc2c(Cl)cccc2Cl)nncc1=O | inactive: -0.908% | 
8 | CC(=O)N1CC=C2C(C#N)=C(N)C(C#N)(C#N)C(CCc3ccccc3)C2C1 (centres undefined) |  | inconclusive: 29.1 µM [inhibitor, single point]
9 | CC1=NOC(=O)/C1=C\c1ccc(-c2ccc(Cl)cc2Cl)o1 |  | active: 11.6 µM
10 | COc1ccc(OC)c2c1sc(=NC(=O)c1ccco1)n2C |  | inconclusive: 20.6 µM [inhibitor, single point]
11 | CSc1nc2ccc3nc(NC(=O)C4COc5ccccc5O4)sc3c2s1 (centres undefined) |  | inconclusive: 29.1 µM [inhibitor, single point]
12 | CCN(CC(=O)Nc1ccccc1C(=O)NC1CC1)Cc1cccs1 |  | inconclusive: 29.1 µM [inhibitor, single point]
13 | COc1ccc(C(=O)OCC(=O)NC(=O)NC2CCCC2)c(OC)c1 |  | inconclusive: 29.1 µM [inhibitor, single point]
14 | CCc1ccc2nc(N3CCN(C(=O)c4ccccc4)CC3)sc2c1 |  | inconclusive: 18.4 µM [inhibitor, partial curve]
15 | COCCNC(=O)c1cc2c(-c3ccc(Cl)cc3)nn(C)c2s1 |  | inconclusive: 29.1 µM [inhibitor, single point]
16 | CCOC(=O)Nc1cccc(NC(=O)c2cc(OC)cc(OC)c2)c1 |  | inconclusive: 35.5 µM [inhibitor, single point]
17 | Cc1nc(COC(=O)c2cc(O)c3ccccc3c2O)cs1 |  | inconclusive: 20.6 µM [inhibitor, single point]
18 | O=C1COc2ccccc2C(c2nc3ccccc3[nH]2)N1Cc1ccccc1 (centres undefined) |  | active: 16.4 µM
19 | O=[N+]([O-])c1ccc(/C=N/Nc2ccc3ccccc3c2)o1 | inactive: -29.8% | 
20 | CC(C)NC(=O)C1(C)CCN1Cc1cccc(C#N)c1 (centres undefined) | inactive: -17.6% | 
21 | O=C(CCNC(=O)c1ccc(Br)cc1)NCCCc1ccccc1 |  | inconclusive: 23.1 µM [inhibitor, single point]
22 | CC(C)C[C@@H]1CC2=C(C(=O)OC(C)(C)O2)[C@H](c2ccc(Cl)cc2)O1 |  | active: 18.4 µM

Row | Compound | activity change, negative = growth inhibition | Potency
23 | O=C(CSc1ncn[nH]1)Nc1ccnc2ccccc12 |  | inconclusive: 23.1 µM [inhibitor, partial curve]
24 | CCC(=O)N1CCN(c2ccccc2NC(=O)COc2ccc(C(C)C)cc2)CC1 |  | active: 16.4 µM
25 | COC(=O)/C(=C\Nc1ccccc1)NC(=O)c1ccc(Cl)cc1Cl | inconclusive: -6.78% [inhibitor] | 
26 | Cc1ccc(C)c(C(=O)C(C)OC(=O)c2cccn2C)c1 (centres undefined) |  | inconclusive: 18.4 µM [inhibitor, single point]
27 | Cc1ccc(-n2nnnc2-c2nc3ccccc3s2)cc1 |  | inconclusive: 16.4 µM [inhibitor, single point]
28 | NS(=O)(=O)c1ccc(CCNC(=O)C(=O)c2cn(CC(=O)N3CCOCC3)c3ccccc23)cc1 | inactive: 19.8% | 
29 | Cc1ccc(-n2c(COc3cccc(C)c3)n[nH]c2=S)cc1 |  | inconclusive: 29.1 µM [inhibitor, single point]
30 | O=C(NCc1ccc2c(c1)OCO2)c1cc([N+](=O)[O-])ccc1N1CCOCC1 |  | inconclusive: 4.11 µM [inhibitor, full curve, poor fit]
31 | CCN(CC)C(=O)C(=O)c1cccn1-c1cccc(-n2cccc2C(=O)C(=O)N(CC)CC)c1C#N |  | inconclusive: 29.1 µM [inhibitor, single point]
32 | COc1ccc(CCN(C)C(=O)COc2ccc(N(C)S(=O)(=O)c3ccc(C)cc3)cc2)cc1OC |  | inconclusive: 18.4 µM [inhibitor, single point]
33 | COc1ccccc1OCC(=O)Nc1ccc(S(=O)(=O)N2CCCCCC2)cc1 |  | inconclusive: 29.1 µM [inhibitor, single point]
34 | Brc1ccc(-c2nnc(SCCC3OCCCO3)o2)cc1 |  | inconclusive: 13 µM [inhibitor, partial curve, poor fit]
35 | Cc1ccc(C)n1-c1cccc(NC(=O)c2ccccc2)c1 |  | inconclusive: 18.4 µM [inhibitor, partial curve]
36 | O=C(C=C1CCN(c2ncc(C(F)(F)F)cc2Cl)CC1)NNC(=O)Nc1ccccc1 |  | inconclusive: 29.1 µM [inhibitor, single point]
37 | CCN(CC)CCN(C(=O)c1ccc2c(c1)CCCC2)c1nc2c(OC)cccc2s1 |  | inconclusive: 29.1 µM [inhibitor, single point]
38 | CCN(CC)S(=O)(=O)c1ccc2c(c1)c(=O)c(C(=O)NCCc1ccc(OC)c(OC)c1)cn2C |  | inconclusive: 23.1 µM [inhibitor, single point] and inconclusive: 18.4 µM [inhibitor, single point]
39 | COc1ccc(OC)c(S(=O)(=O)N2CCc3ccccc3C2)c1 |  | inconclusive: 29.1 µM [inhibitor, single point]
40 | CC(C)C1Oc2ccccc2N(CC(=O)NC2CCCCC2)C1=O (centres undefined) |  | inconclusive: 23.1 µM [inhibitor, single point]
41 | O=C(Nc1cnc2ccccn2c1=O)c1ccc(F)cc1 | inactive: -4.58% | 
42 | CCc1c(C)nc2ncnn2c1N1CCCC(C(=O)NCc2ccco2)C1 (centres undefined) |  | inconclusive: 25.1 µM [inhibitor, single point]
43 | Cc1ccccc1CNC(=O)C1CCC(=O)N(C2CCCCCC2)C1 (centres undefined) |  | inconclusive: 25.9 µM [inhibitor, single point]
44 | CCN(CC)Cc1ccc(NC(=O)c2sc3cc(Cl)ccc3c2Cl)cc1 |  | active: 16.4 µM
